From US20230338322A1, “GLYCERYLTRIACETATE (GTA) FOR USE IN IMPROVING BREATHING” (YISSUM RESEARCH DEVELOPMENT COMPANY OF THE HEBREW …, priority 2020, published 2023)

Assay: Treating lung cancer patient with breathing difficulties
Settings: 92 old male, NSCLC advanced stage; pure GTA in hard-shell Vegicaps, oral, 12 ml a day divided among 3 meals
Procedure: A 92 old male diagnosed with lung cancer (NSCLC) at advanced stage, was suffering from shortness of breath, they looked pale and could not walk more than ˜50 m without stopping for a rest. […] The patient started taking pure glyceryl-triacetate (GTA), encapsulated in hard-shell Vegicaps (produced by Capsugel), 12 ml a day, divided among 3 meals. After 3 days the patient increased the dose to 24 ml a day and after additional 3 days they consumed a daily dose of 30 ml GTA for a period of 1 month.

In the case of CC(=O)OCC(COC(C)=O)OC(C)=O [GTA, Glyceryltriacetate], the “time until patient reported feeling much better and easier breathing” value is reported as at most 2 days.
